These results are taken from ChEMBL document CHEMBL4888484, “Replenishing the malaria drug discovery pipeline: Screening and hit evaluation of the MMV Hit Generation Library 1 (HGL1) against asexual blood stage Plasmodium falciparum ,using a nano luciferase reporter read-out” (2022).

SMILES strings stand for the structures. The whole screen tested about 150,000 compounds, of which about 540 (0.36%) showed an effect of 50% or more. The list shows a part of the results.

The assay has as its system Plasmodium falciparum. Description: Primary screen in NF54 nanoGlo assay, in single point, at 2uM, 72h; a lower Z score goes with more inhibition. The format is functional, Erythrocyte. Conditions: timepoint 72 hour.

As usually defined, the % Inhibition is the relative decrease from the control value, in per cent. As for `Cc1nnc(CN(C)Cc2c[nH]cn2)s1`, the “% Inhibition” value is 4% and the Z score is reported as -0.58.
With `Cn1ccnc(NC(=O)NCc2ccc(C3CC3)cc2)c1=O`, the “% Inhibition” value turned out to be 1% and the Z score is reported as -0.15.
In the case of `Cc1ccnc(N2CCc3[nH]nc(C4CC4)c3C2)n1`, the “% Inhibition” value was -20% and the Z score was determined as 3.7.
For the compound `CCc1ccc(S(=O)(=O)Nc2nc3n(c2C(=O)c2ccc(OC)cc2)CCC3)cc1`, the “% Inhibition” value is given as -5% and the Z score is reported as 0.84.
The like results for `Cn1ccc2c(-c3cnc4c(C(N)=O)cnn4c3)ccnc21` were, in that order, 8% and -1.33.
With `COc1cccc(C(=O)N2C[C@@H]3CN(C(C)C)C[C@]3(C(=O)N3CCCC3)C2)c1C`, the “% Inhibition” value is -23% and the Z score amounted to 3.09.
The corresponding values for `CC1(C)C[C@@](C)(c2ccccc2)c2ccccc2N1C(=O)c1ccccc1Cl` are -10% and 1.36.
The like results for `Cc1nc(C)c(CN(CC(F)(F)F)C2CC2)s1` were, in that order, -3% and 0.45.
The like results for `CCOC(=O)c1nc([C@H](CC(C)C)NC(=O)Nc2ccccn2)n[nH]1` were, in that order, -3% and 0.26.
As for `Cc1cc(NC(=O)N(CCO)Cc2ccco2)ccc1N1CCCC1=O`, the “% Inhibition” value is on record as -1% and the Z score was found to be 0.28.
As to `Cn1cc(CCC(=O)N2CCCN(C3CCCCC3)CC2)cn1`, the “% Inhibition” value stood at 15% and the Z score is -1.85.
For `CC(C)Cc1ccc(CC(=O)NC[C@H](O)C2CCOCC2)cc1`, the “% Inhibition” value is -13% and the Z score was 1.76.
In the case of `CN1C(=O)CN(C(=O)[C@@H]2CCCO2)c2ccccc21`, the “% Inhibition” value is on record as -13% and the Z score is listed as 1.26.
For `Cc1nc(Cn2cc(Br)ccc2=O)oc1C`, the “% Inhibition” value was -14% and the Z score is 1.3.
Turning to `Cc1csc(C(=O)NC[C@H]2CCN2C2CCOCC2)n1`, the “% Inhibition” value is recorded as -10% and the Z score turned out to be 1.38.
The like results for `Cc1sc(C(N)=O)cc1S(=O)(=O)N1CCOc2cccc(F)c21` were, in that order, -10% and 1.57.
For the compound `Nc1nc2c(c(N[C@H]3C[C@@H](c4cc(=O)[nH]cn4)C3)n1)CCC2`, the “% Inhibition” value is given as -9% and the Z score is 1.66.
The like results for `FC(F)c1cc(C2CC2)n([C@H]2CCCOC2)n1` were, in that order, -16% and 1.44.
The like results for `Cc1nonc1[C@H](C)NCCN1CCCOCC1` were, in that order, 8% and -1.35.
Turning to `O=C(Cn1cccn1)Nc1nncn1C1CC1`, the “% Inhibition” value was -6% and the Z score is on record as 0.76.
With `CCCc1nc(CN(CC)C(=O)NCc2cncn2CC)no1`, the “% Inhibition” value was -16% and the Z score was determined as 1.57.
The corresponding values for `Cc1n[nH]c(=O)nc1NC1CCCCCCC1` are -10% and 1.29.
The like results for `O=C(Nc1ccc(=O)n(Cc2cccnc2)c1)c1cc2ccccc2o1` were, in that order, 4% and -0.74.
The corresponding values for `CCc1cc(NC(=O)N2CCN([C@H]3CCCN(C)C3)CC2)nn1C` are 9% and -1.08.
Regarding `COc1ccc2cc3n(c2c1)C[C@](C(=O)NC1CCCCCC1)(c1ccccc1)N(Cc1ccccc1Cl)C3=O`, the “% Inhibition” value amounted to 32% and the Z score was -1.22.
Consider `CCn1ncc(CN(C)c2ncc3c(=O)n(-c4ccccc4)c(=O)[nH]c3n2)c1C`, for which the “% Inhibition” value is -8% and the Z score was found to be 0.94.
For the compound `Cc1cc(C(=O)N2CCN(c3ccccc3F)CC2)nc(N(C)C)n1`, the “% Inhibition” value worked out at 29% and the Z score was -3.91.
The like results for `O=C(NCc1ccco1)c1cn(-c2ncccc2-c2nc(-c3ccccc3)no2)cn1` were, in that order, -5% and 0.68.
The corresponding values for `CCc1ncnc(NCc2cnn(C)c2C)c1F` are -6% and 0.98.
The corresponding values for `Cc1cccc(N2CCN([C@H]3CS(=O)(=O)C[C@@H]3S(=O)(=O)c3ccc(F)c(C)c3)CC2)c1` are -20% and 2.49.
Turning to `CCC(=O)N1CCc2[nH]cnc2C12CCN(C(=O)[C@@H](C)Cn1cncn1)CC2`, the “% Inhibition” value is on record as -9% and the Z score is reported as 1.02.
The corresponding values for `Cc1cc(CNC(=O)N(Cc2cnn(C)c2)CC(C)C)ccn1` are -8% and 1.38.
The like results for `CCOC[C@H]1CCN(C(=O)c2occc2NC(=O)OC(C)(C)C)C1` were, in that order, -14% and 1.76.
With `CCOCCO/C(=N/C(=O)c1cccc(OC)c1)NCCCOC`, the “% Inhibition” value was -22% and the Z score came to 1.93.
Consider `C[C@@]1(c2nc(Cc3cccs3)nn2CC(F)(F)F)CCCO1`, for which the “% Inhibition” value is listed as -15% and the Z score stood at 1.41.
Consider `COc1cc2c(cc1OC)CN(c1cc(C(=O)NC3C[C@H]4CC[C@@H]3C4)c3ccccc3n1)CC2` (stereo partly specified), for which the “% Inhibition” value came out at 12% and the Z score is reported as -2.02.
As to `Cc1ccnc(NC(=O)c2cc(O)ncn2)c1`, the “% Inhibition” value is -15% and the Z score was 2.49.
As for `O=C(CN[C@@H](CO)c1ccc(Cl)c(F)c1)N1CCCCCC1`, the “% Inhibition” value is -6% and the Z score is on record as 1.2.
The like results for `O=C(Nc1ccc2[nH]c(C3CC3)nc2c1)c1cccs1` were, in that order, -16% and 1.75.
Regarding `COc1ccc(CNC(=O)C[C@@H]2O[C@H](CNC(=O)Nc3cccc(F)c3)[C@@H](O)[C@H]2O)cc1`, the “% Inhibition” value is reported as -6% and the Z score is 0.93.
The corresponding values for `Cc1n[nH]c(NC(=O)C(C)(C)C2CCC2)c1C` are 1% and -0.19.
The corresponding values for `CC1CCN(Cc2cnc3ccccn23)CC1n1ccnc1` (stereo unspecified) are -9% and 0.77.
On to `CN1CCN(C(=O)[C@@H]2CC3(CCN(S(=O)(=O)c4ccccc4F)CC3)CN2C)CC1`, for which the “% Inhibition” value was 0% and the Z score came out at 0.01.
